These are yes or no findings as the source states them, for the method shown. For some assays here: In cells and extracts the contact can be indirect. Some entries that bind do so weakly or less than the wild type. Values belong to the molecule of their own block, whether it stands above or below them.
Key:
PICK1-flag (HEK293) = PICK1-flag (HEK293) (UniProt Q9EP80); test: co-IP; extracts of transfected HEK293 cells (PICK1-flag with myc-GluA2 or myc-GluA1); endogenous Arf1 detected; precipitating antibody not told in the text shown (Figure S1C)
myc-GluA1 (HEK293) = myc-GluA1 (HEK293) (UniProt P19490); test: as above
[1] = molecular target: PICK1 (endogenous, cultured neurons) (rat (endogenous in cultured neurons)) (UniProt Q9EP80); test: co-IP; cultured neurons untreated or exposed to NMDA for 3 min and chased 7 min, fixed in 1% paraformaldehyde (cross-linking), quenched with glycine, lysed without GTPγS; immunoprecipitated with anti-PICK1
[2] = molecular target: PICK1 (endogenous, cultured neurons) (rat (endogenous in cultured neurons)) (UniProt Q9EP80); test: co-IP; cultured neurons lysed with or without GTPγS; extracts immunoprecipitated with anti-PICK1 or control IgG; western blot
GST-PICK1 [3] = molecular target: GST-PICK1 (UniProt Q9EP80); test: pull-down; extracts of COS7 cells expressing HA- or myc-tagged Arf mutants incubated with GST-PICK1 or GST; western blot with anti-HA or anti-myc and anti-GST; only the target purified
[4] = molecular target: KD27,28AA-PICK1-FLAG (COS7) (UniProt Q9EP80); test: co-IP; extracts of COS7 cells expressing WT- or KD27,28AA-PICK1-FLAG with HA-Arf1 Q71L, immunoprecipitated with anti-FLAG or control IgG; western blot with anti-HA or anti-FLAG
WT-PICK1-FLAG (COS7) = WT-PICK1-FLAG (COS7) (UniProt Q9EP80); test: as above
[5] = molecular target: GluA2 (endogenous, cultured neurons) (rat (endogenous in cultured neurons)) (UniProt P19491); test: co-IP; extracts of cultured neurons infected with Sindbis virus expressing GFP or pep2-EVKI, immunoprecipitated with anti-GluA2 with or without GTPγS; western blot
myc-GluA2 (HEK293) = myc-GluA2 (HEK293) (UniProt P19491); test: co-IP; extracts of transfected HEK293 cells (PICK1-flag with myc-GluA2 or myc-GluA1); endogenous Arf1 detected; precipitating antibody not told in the text shown (Figure S1C)
[6] = molecular target: GST-Δ105-PICK1 (PDZ domain deleted) (UniProt Q9EP80); test: pull-down; GST-Δ105-PICK1 complexed with his6135Δ-PICK1 immobilised on beads and incubated with GDPβS- or GTPγS-loaded Arf1; western blot; both purified
GST-PICK1 [7] = molecular target: GST-PICK1 (UniProt Q9EP80); test: pull-down; immobilised GST or GST-PICK1 incubated with purified his6Arf1 (WT or ΔCT) with 0.2 mM GTPγS or 0.2 mM GDPβS, no other proteins; western blot with anti-Arf1 and anti-GST; both purified
GST-Arf1 = GST-Arf1 (UniProt P84077); test: pull-down; extracts of cultured neurons (with or without NMDA for 3 min) incubated with immobilised GST-Arf1; western blot with anti-GIT1 and anti-GST; only the target purified

Chains of the proteins cited; added tags and fusions are not shown. Lines headed by an entry give the natural chain unless they say otherwise; changes in a name come on top. A line that says so, or that is headed by a name, gives the form on record, which may keep a tag or linker. Residues count along the entry.
UniProt Q9EP80: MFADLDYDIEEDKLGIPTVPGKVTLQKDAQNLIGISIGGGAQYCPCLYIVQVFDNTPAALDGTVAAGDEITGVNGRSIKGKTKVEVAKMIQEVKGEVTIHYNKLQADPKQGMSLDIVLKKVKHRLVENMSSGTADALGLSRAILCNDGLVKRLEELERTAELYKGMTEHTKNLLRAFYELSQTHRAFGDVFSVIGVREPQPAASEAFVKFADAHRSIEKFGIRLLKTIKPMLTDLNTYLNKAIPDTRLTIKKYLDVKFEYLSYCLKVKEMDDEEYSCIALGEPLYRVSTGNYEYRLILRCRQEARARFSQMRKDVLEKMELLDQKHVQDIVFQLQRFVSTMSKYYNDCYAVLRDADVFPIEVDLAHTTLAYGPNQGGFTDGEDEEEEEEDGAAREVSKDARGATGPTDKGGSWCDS
GST-Δ105-PICK1 (PDZ domain deleted): residues 106-416 of Q9EP80
KD27,28AA-PICK1-FLAG (COS7) (Q9EP80, form named): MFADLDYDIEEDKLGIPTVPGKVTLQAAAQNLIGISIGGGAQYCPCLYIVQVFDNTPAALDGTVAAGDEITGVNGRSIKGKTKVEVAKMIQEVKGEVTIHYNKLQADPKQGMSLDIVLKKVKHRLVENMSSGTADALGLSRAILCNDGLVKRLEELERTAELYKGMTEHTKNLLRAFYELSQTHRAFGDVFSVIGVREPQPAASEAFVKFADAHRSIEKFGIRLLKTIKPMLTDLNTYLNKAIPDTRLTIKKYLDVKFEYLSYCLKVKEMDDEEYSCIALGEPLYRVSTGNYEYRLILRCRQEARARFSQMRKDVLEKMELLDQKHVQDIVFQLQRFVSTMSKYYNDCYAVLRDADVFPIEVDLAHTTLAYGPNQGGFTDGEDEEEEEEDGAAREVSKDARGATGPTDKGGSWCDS
UniProt P19490, residues 19-907: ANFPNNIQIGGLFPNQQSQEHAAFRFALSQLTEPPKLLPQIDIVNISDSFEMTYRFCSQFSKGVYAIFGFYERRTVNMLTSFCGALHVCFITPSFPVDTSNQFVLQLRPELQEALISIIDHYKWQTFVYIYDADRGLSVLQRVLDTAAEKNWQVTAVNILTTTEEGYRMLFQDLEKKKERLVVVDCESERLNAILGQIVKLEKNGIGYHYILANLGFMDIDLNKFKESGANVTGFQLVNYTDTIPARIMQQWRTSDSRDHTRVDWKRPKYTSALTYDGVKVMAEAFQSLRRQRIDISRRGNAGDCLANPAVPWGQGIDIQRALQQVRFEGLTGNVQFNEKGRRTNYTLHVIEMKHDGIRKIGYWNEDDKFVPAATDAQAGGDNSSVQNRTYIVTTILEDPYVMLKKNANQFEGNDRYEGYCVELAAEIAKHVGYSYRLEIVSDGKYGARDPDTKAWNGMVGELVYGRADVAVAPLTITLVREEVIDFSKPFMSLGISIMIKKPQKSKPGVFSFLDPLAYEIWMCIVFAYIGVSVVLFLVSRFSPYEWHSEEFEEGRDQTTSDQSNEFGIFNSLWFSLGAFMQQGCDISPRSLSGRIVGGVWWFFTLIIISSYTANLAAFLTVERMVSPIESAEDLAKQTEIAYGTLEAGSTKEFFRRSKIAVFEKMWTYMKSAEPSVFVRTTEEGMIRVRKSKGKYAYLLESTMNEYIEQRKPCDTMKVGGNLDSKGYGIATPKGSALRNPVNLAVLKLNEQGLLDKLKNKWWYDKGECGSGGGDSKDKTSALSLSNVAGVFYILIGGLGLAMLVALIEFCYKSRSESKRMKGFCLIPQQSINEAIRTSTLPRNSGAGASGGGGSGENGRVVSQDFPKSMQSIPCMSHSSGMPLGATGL
UniProt P19491, residues 22-883: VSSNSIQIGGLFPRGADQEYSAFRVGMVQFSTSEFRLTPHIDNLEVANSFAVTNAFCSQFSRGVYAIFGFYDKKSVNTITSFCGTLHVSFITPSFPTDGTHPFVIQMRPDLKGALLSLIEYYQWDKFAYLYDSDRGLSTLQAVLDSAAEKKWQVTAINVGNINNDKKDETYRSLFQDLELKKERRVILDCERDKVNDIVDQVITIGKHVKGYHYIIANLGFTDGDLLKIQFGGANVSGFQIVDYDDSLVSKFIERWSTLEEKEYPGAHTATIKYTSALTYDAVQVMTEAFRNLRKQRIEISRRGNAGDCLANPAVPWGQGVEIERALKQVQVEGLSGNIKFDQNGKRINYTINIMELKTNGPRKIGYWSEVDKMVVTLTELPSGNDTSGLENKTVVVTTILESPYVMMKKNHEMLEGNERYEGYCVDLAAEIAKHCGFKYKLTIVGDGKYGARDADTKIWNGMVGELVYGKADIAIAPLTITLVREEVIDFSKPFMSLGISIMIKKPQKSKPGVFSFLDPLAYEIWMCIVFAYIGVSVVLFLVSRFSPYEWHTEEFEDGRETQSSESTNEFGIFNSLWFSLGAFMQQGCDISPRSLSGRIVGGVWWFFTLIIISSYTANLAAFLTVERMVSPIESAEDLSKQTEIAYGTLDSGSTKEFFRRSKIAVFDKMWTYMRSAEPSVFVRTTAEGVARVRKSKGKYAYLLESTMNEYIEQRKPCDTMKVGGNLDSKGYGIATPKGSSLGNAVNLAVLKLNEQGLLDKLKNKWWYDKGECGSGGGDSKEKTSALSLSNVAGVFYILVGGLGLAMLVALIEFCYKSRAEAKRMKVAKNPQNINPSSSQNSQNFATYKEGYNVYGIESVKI
UniProt P84077: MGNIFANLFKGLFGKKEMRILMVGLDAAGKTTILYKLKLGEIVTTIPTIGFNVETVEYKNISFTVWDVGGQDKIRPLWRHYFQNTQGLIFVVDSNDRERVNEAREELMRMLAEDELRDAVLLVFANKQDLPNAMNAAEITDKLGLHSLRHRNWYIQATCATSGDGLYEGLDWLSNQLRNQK
UniProt P84079: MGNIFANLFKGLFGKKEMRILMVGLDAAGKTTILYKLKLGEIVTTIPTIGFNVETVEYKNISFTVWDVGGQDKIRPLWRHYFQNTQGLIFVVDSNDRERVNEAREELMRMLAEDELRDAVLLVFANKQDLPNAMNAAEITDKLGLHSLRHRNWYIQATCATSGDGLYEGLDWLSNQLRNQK
UniProt P62330: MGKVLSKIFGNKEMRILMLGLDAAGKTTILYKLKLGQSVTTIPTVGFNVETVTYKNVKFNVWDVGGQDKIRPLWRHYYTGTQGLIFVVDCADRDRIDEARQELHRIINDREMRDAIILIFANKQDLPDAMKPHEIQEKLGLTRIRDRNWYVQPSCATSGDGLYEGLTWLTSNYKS

- binding (PICK1-flag (HEK293)): binds
- binding (myc-GluA1 (HEK293)): no binding
Molecule: Arf1 (endogenous, HEK293 cells) (from UniProt P84077 1-181)

- binding [1]: binds
Molecule: Arf1 (endogenous, cultured neurons) (from UniProt P84079 1-181)

- binding [2]: binds
Molecule: GluA2 (endogenous, cultured neurons) (from UniProt P19491 22-883) (receptor)

- binding (GST-PICK1 [3]): binds
- binding [4]: no binding
- binding (WT-PICK1-FLAG (COS7)): binds
Molecule: HA-Arf1 Q71L (constitutively active) (from UniProt P84077 1-181)

- binding [5]: binds
Molecule: PICK1 (endogenous, cultured neurons) (from UniProt Q9EP80 1-416)

- binding (myc-GluA2 (HEK293)): binds
Molecule: PICK1-flag (HEK293) (from UniProt Q9EP80 1-416)

- binding [6]: binds
Molecule: his6-135Δ-PICK1 (PDZ domain only) (from UniProt Q9EP80 1-135) (domain or fragment)

- binding (GST-PICK1 [7]): no binding
Molecule: his6-ΔCT-Arf1 (from UniProt P84077 1-177) (domain or fragment)

- binding (GST-PICK1 [3]): no binding
Molecule: myc-Arf6 Q67L (constitutively active) (from UniProt P62330 1-175)

- binding (GST-PICK1 [3]): no binding
Molecule: myc-Arf6 T27N (dominant-negative) (from UniProt P62330 1-175)

- binding (GST-Arf1): binds
B1: GIT1 (endogenous, cultured neurons) (protein, UniProt Q9Z272 1-770)
chain: MSRKGPRAEVCADCSAPDPGWASISRGVLVCDECCSVHRSLGRHISIVKHLRHSAWPPTLLQMVHTLASNGANSIWEHSLLDPAQVQSGRRKANPQDKVHPIKSEFIRAKYQMLAFVHKLPCRDDDGVTAKDLSKQLHSSVRTGNLETCLRLLSLGAQANFFHPEKGTTPLHVAAKAGQTLQAELLVVYGADPGSPDVNGRTPIDYARQAGHHELAERLVECQYELTDRLAFYLCGRKPDHKNGHYIIPQMADRSRQKCMSQSLDLSELAKAAKKKLQALSNRLFEELAMDVYDEVDRRENDAVWLATQNHSTLVTERSAVPFLPVNPEYSATRNQGRQKLARFNAREFATLIIDILSEAKRRQQGKSLSSPTDNLELSARNQSDLDDQHDYDSVASDEDTDQEPLPSAGATRNNRARSMDSSDLSDGAVTLQEYLELKKALATSEAKVQQLMKVNSSLSDELRKLQREIHKLQAENLQLRQPPGPVPVPSLPSERAEHTLMGPGGSTHRRDRQAFSMYEPGSALKPFGGAPGDELATRLQPFHSTELEDDAIYSVHVPAGLYRIRKGVSASSVTFTPSSPLLSSSQEGSRHASKLSRHGSGAESDYENTQSGEPLLGLEGKRFLELSKEDELHAELESLDGDPDPGLPSTEDVILKTEQVTKNIQELLRAAQEFKHDSFVPCSEKIHLAVTEMASLFPKRPALEPVRSSLRLLNASAYRLQSECRKTVPPEPGAPVDFQLLTQQVIQCAYDIAKAAKQLVTITTREKKQ

Source: publication PMC3725416
